Data taken from PubChem BioAssay AID360 (National Center for Advancing Translational Sciences (NCATS), 2006).
Screen size: about 48,000 compounds; about 550 (1.1%) were called active. About 4% were inconclusive and are not listed. Cut-off read from the data, not from the text of the source: active = potency below about 15 µM; inconclusive = mostly about 16 µM to 33 µM; inactive = weaker than that. This is one part of the list.

These compounds were tested against Lysosomal acid glucosylceramidase (Homo sapiens) (UniProt P04062) (assay: Glucocerebrosidase). Conditions: purified enzyme, resorufin glucoside fluorescence (screen aimed at inhibitors), 20 min; series mostly up to 77 µM.
Chain of UniProt P04062 (P04062 whole entry, looked up): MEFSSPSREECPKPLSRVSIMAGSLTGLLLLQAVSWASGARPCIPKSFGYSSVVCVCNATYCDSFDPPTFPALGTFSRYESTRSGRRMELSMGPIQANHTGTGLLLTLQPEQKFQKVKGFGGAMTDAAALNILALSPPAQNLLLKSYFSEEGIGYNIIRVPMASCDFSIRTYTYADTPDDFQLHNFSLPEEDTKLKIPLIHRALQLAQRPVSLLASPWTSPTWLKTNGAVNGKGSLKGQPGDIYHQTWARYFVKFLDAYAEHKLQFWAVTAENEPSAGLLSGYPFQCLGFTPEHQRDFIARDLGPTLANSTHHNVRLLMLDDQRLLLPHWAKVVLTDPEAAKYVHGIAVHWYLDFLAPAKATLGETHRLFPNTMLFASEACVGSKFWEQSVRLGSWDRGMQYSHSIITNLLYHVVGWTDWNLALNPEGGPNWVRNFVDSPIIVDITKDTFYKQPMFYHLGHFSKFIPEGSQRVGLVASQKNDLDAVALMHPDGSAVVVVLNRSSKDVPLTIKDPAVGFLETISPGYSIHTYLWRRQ
Procedure, shortened: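 Compounds titrated against 0.2 nM normal enzyme, 30 uM resorufin beta-D-glucopyranoside substrate, citrate/phosphate buffer with taurocholate and tween-20, pH 5.9. Reaction ran 20 min at room temperature; fluorescence (Ex 548/Em 600) gave AC50.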
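Note: the screen sought inhibitors.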
Potency is the fitted concentration of half-maximal effect.

Potency, inactive:
Cc1cc(C)n2c(SCCC(C)C)nnc2n1 > 76.9 µM
O=C(NCCN1CCOCC1)C1CCN(Cc2ccccc2O)CC1 > 76.9 µM
Cc1n[nH]c(C)c1S(=O)(=O)N1CCN(c2ccccn2)CC1 > 76.9 µM
CN1CCCC(OC(=O)c2cc(Cl)ccc2Cl)C1 (stereo not drawn) > 76.9 µM
O=C(CSc1ncn[nH]1)NC1CC2CCC1C2 (stereo not drawn) > 76.9 µM
CNc1nc2sc3c(c2c(=O)n1C)CC(C)(C)SC3 > 76.9 µM
Cn1c(SCc2nnc(-c3ccccc3Br)o2)nc2sc3c(c2c1=O)CCC3 > 76.9 µM
N#Cc1nc(COc2ccc(F)cc2)oc1N1CCC(Cc2ccccc2)CC1 > 76.9 µM
CCOc1cc(NC(=O)c2ccco2)c(OCC)cc1NC(=O)CCc1ccccc1OC > 76.9 µM
Cc1csc(SCC(=O)Nc2ccccn2)n1
Cc1ccccc1C(=O)NC1CC(C)(C)NC(C)(C)C1 > 76.9 µM
CCCN(CCC)CCNc1c(N2CCN(C(=O)OCC)CC2)c(=O)c1=O > 76.9 µM
Cc1nc(SCCCSc2n[nH]c(C)n2)n[nH]1 > 76.9 µM
Cn1c2c(c(=O)n(C)c1=O)C(c1cccc(Br)c1)C1C(=O)c3ccccc3C1=N2 (stereo not drawn) > 76.9 µM
O=C(COC(=O)CCNS(=O)(=O)c1ccc(Cl)cc1)NCc1ccco1 > 76.9 µM
Cc1cc(C(=O)CSc2nnc(Nc3ccccc3)s2)c(C)n1CC1CCCO1 (stereo not drawn) > 76.9 µM
COc1cccc(Oc2ccc(N)cc2)c1 > 76.9 µM
Cc1nc(CSc2nc3[nH]ncc3c(=O)n2-c2ccccc2)cs1 > 76.9 µM
O=S(=O)(NCC1CCCO1)c1ccc2oc3ccc(S(=O)(=O)NCC4CCCO4)cc3c2c1 (stereo not drawn) > 76.9 µM
Cc1ccc2nsnc2c1S(=O)(=O)Nc1cccc2nsnc12 > 76.9 µM
O=C(c1ccco1)N1CCN(S(=O)(=O)c2ccc3c(c2)CCN3C(=O)C2CC2)CC1 > 76.9 µM
COc1ccc(CCCc2nnc(SCC(=O)Nc3cc(C)c(C)cc3Br)o2)cc1 > 76.9 µM
COC(=O)c1ccc(CSc2nnnn2Cc2ccccc2)cc1 > 76.9 µM
N#Cc1ccccc1-n1c(N)c(C(=O)N2CCCC2)sc1=S > 76.9 µM
CCCCCCNC(=O)c1c(N)n(/N=C/c2ccco2)c2nc3ccccc3nc12 > 76.9 µM
CCC(C)[C@H](NC(=O)NCc1ccc(Cl)cc1)C(=O)OC (stereo partly drawn) > 76.9 µM
O=C(OCc1nnc(-c2ccccc2)o1)c1ccco1 > 76.9 µM
CC(C)(C)c1ccc(S(=O)(=O)NCC(=O)N2CCN(C(=O)c3ccco3)CC2)cc1 > 76.9 µM
CCCNS(=O)(=O)c1ccc(OCC(=O)NCc2ccco2)cc1 > 76.9 µM
Oc1ccccc1C1=NCCNC(C(F)(F)C(F)F)=C1 > 76.9 µM
O=C(NCc1ccncc1)/C(=N/O)c1ccccc1 > 76.9 µM
Cc1ccc(NCCNc2ccc(C)cc2)cc1 > 76.9 µM
CC(C)COc1cc(=O)[nH]c(SCC(C)C)n1 > 76.9 µM
CC(C)Cc1nnc(NC(=O)CSc2nc(=O)cc(N)n2-c2ccccc2)s1 > 76.9 µM
Cc1cc(C)nc(N2CCC(C(=O)Nc3ccc4c(c3)OCO4)CC2)n1 > 76.9 µM
Cc1ccc(-c2cc(C(F)(F)F)n3ncc(C(=O)O)c3n2)cc1 > 76.9 µM
CCCn1c(SCC(=O)NCCc2ccc(OC)c(OC)c2)nc2c1c(=O)n(C)c(=O)n2C > 76.9 µM
COc1ccc(N2CCn3c2nc2c3c(=O)n(CCc3ccccc3)c(=O)n2C)cc1 > 76.9 µM
CC(=O)c1ccc(NC(=O)CCNS(=O)(=O)c2cccc3nonc23)cc1 > 76.9 µM
CCc1ccc(-c2nnn(Cc3nc4ccccc4s3)n2)cc1 > 76.9 µM
CCCN1Cc2cccc(C(=O)NCCCOC(C)C)c2C1=O > 76.9 µM
COc1ccc(OC)c(C2C(C(=O)Nc3cccnc3)=C(C)NC3=C2C(=O)CCC3)c1 (stereo not drawn) > 76.9 µM
CCOc1ncccc1C(=O)Nc1ccc(Cl)cc1 > 76.9 µM
Cc1cc(C)n2cc(CSc3nnnn3C)nc2n1 > 76.9 µM
COc1ccc(C2=CC(c3c(C)nn(-c4ccccc4)c3Cl)n3nnnc3N2)cc1OC (stereo not drawn) > 76.9 µM
O=C1CN(C(=O)COC(=O)C2CC(=O)N(Cc3ccco3)C2)c2ccccc2N1 (stereo not drawn) > 76.9 µM
CCOC(=O)N1CCC(Nc2c(NCCN3CCN(Cc4ccccc4)CC3)c(=O)c2=O)CC1 > 76.9 µM
Cc1ccc(Oc2ccc(N)cc2)cc1 > 76.9 µM
O=C(Nc1ccc2c(c1)OCO2)c1cnn2cccnc12 > 76.9 µM
CCC(=O)OCC(=O)c1c(N)n(Cc2ccccc2)c(=O)n(C)c1=O > 76.9 µM
Cc1cc(C(=O)CSC(C)c2nc3ccccc3c(=O)[nH]2)c(C)n1C (stereo not drawn) > 76.9 µM
CCCc1nc2oc(C(=O)OCC)c(N)c2c2c1COC(C)(C)C2 > 76.9 µM
O=C(NC1CCCCCC1)C1c2ccccc2C(=O)N1C1CC1 (stereo not drawn) > 76.9 µM
COc1ccc(N2CCN(CC(=O)Nc3nc4c(s3)CC(C)CC4)CC2)cc1 (stereo not drawn) > 76.9 µM
Cc1cc(=O)n2nc(N3CCC(C(=O)NCCc4ccccc4)CC3)sc2n1 > 76.9 µM
CCOC(=O)c1cc2c(=O)n3ccccc3nc2n(Cc2ccccc2)c1=N > 76.9 µM
COc1cc(C2CC(=O)c3cnc(N4CCN(Cc5ccccc5)CC4)nc3C2)cc(OC)c1OC (stereo not drawn) > 76.9 µM
COC(=O)c1cc(-c2c(C)oc3cc(O)ccc3c2=O)c(C)o1 > 76.9 µM
